Laboratory results: the supplement of paper PMC10502849
The other results are listed elsewhere or left out. Single values are uncertain, as repeats are few or missing. Peptide text beside a SMILES is read from it. * marks the point of attachment. Cbz = O=C(OCc1ccccc1)*

Key:
[1] = test system: H9 teratoma-derived LAM model cells, TSC2-/-; assay: percent SyTOX+ dead cells; higher = more cytotoxic; details: 5 µM, treatment time 72 h, culture: 3D hyaluronic acid hydrogel
[2] = test system: H9 teratoma-derived LAM model cells, WT; assay: percent SyTOX+ dead cells; higher = more cytotoxic; details: 5 µM, treatment time 72 h, culture: 3D hyaluronic acid hydrogel, genotype: WT
[3] = test system: H9 teratoma-derived LAM model cells, TSC2-/-; assay: percent of cells invaded past median invasion distance of vehicle control; LAM is lymphangioleiomyomatosis; the cells come from teratomas of the human stem cell line H9; higher = more invasion; extreme values may be limits of the assay; details: 5 µM, treatment time 72 h, culture: 3D hyaluronic acid hydrogel
[4] = test system: H9 teratoma-derived LAM model cells, WT; assay: as above; details: 5 µM, treatment time 72 h, culture: 3D hyaluronic acid hydrogel, genotype: WT
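Wherever percent SyTOX+ dead cells is given: cells seeded atop a hyaluronic acid gel crosslinked via MMP-cleavable peptides, containing vitronectin peptides and methylcellulose, imaged live by high-content microscopy with automated analysis, one technical replicate per compound.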
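Wherever percent of cells invaded past median invasion distance of vehicle control is given: live cells imaged by high content microscopy and scored with in-house automated image analysis, one technical replicate per compound in each genotype and rapamycin condition.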

Row | Compound | percent SyTOX+ dead cells ([1]; rapamycin 0 nM) [%] | percent SyTOX+ dead cells ([1]; rapamycin 20 nM) [%] | percent SyTOX+ dead cells ([2]; rapamycin 0 nM) [%] | percent SyTOX+ dead cells ([2]; rapamycin 20 nM) [%] | percent ([3]; rapamycin 0 nM) [%] | percent ([3]; rapamycin 20 nM) [%] | percent ([4]; rapamycin 0 nM) [%] | percent ([4]; rapamycin 20 nM) [%]
1 | CC(C)C[C@@H](C=O)NC(=O)[C@H](CC(C)C)NC(=O)[C@H](CC(C)C)NC(=O)OCc1ccccc1 (Cbz-Leu-Leu-Leu-aldehyde) | 67.3 | 69.7 | 63.9 | 53.6 | 2.44 | 2.53 | 14.2 | 10.5
2 | O=C(NCc1ccccc1)c1csc(Nc2ccncn2)n1 [Thiazovivin] | 47.4 | 23.6 | 30 | 36.3 | 7.51 | 0 | 0 | 1.61
3 | CCN(CC)Cc1cc(Cl)c2cccnc2c1O | 26.5 | 31.2 | 21.1 | 28.4 | 9.31 | 1.83 | 21.4 | 9.57
4 | CCN1CCN(c2ccc(Nc3cc(N(C)C(=O)Nc4c(Cl)c(OC)cc(OC)c4Cl)ncn3)cc2)CC1 | 8.52 | 1.46 | 17.2 | 7.25 | 96.6 | 74.5 | 90.5 | 51.3
5 | Cc1cc(I)ccc1Nc1c(C(=O)NOCC2CC2)cc(F)c(F)c1F | 36.1 | 42.7 | 46.8 | 55.2 | 43.5 | 38.3 | 9.54 | 8.81
6 | Oc1c2ccccc2c2c3c(cccc13)N=N2 | 9.77 | 15.1 | 35.8 | 23.9 | 7.52 | 46.8 | 0 | 2.65
7 | Cc1[nH]c(/C=C2\C(=O)Nc3ccc(S(=O)(=O)N(C)c4cccc(Cl)c4)cc32)c(C)c1C(=O)N1CCN(C)CC1 | 71.8 | 69.8 | 53.9 | 42.7 | 2.29 | 2.33 | 4.9 | 3.51
8 | O=c1[nH]ccc2c(O)cccc12 [1,5-Isoquinolinediol, IQD] | 19.1 | 10.8 | 9.76 | 10.6 | 51.8 | 32.1 | 51.5 | 33.9
9 | CCOc1cc2ncc(C#N)c(Nc3ccc(F)c(Cl)c3)c2cc1NC(=O)/C=C/CN(C)C [Pelitinib, EKB-569, WAY-EKB-569] | 16.9 | 13.4 | 43.2 | 40.4 | 56.1 | 16.5 | 10 | 0
10 | Cc1ccc2c(=O)c3ccccc3n(CCCN)c2c1C | 9.94 | 9.62 | 33.6 | 10.5 | 9.32 | 9.21 | 1.77 | 14.5
11 | COc1cc2c(Oc3ccc4[nH]c(C)cc4c3F)ncnc2cc1OCCCN1CCCC1 [Cediranib, AZD-2171, Recentin] | 15.6 | 10.9 | 24.2 | 12.2 | 40.9 | 27.9 | 19 | 26
12 | CN[C@@H](C)C(=O)N[C@H]1CN(C(=O)CC(C)C)CC[C@H]2CC[C@@H](C(=O)NC(c3ccccc3)c3ccccc3)N2C1=O [AT-406, Debio-1143; SM-406 (former code)] | 20.5 | 11.7 | 13.2 | 9.24 | 58.6 | 37.6 | 43.9 | 47.5
13 | Cc1[nH]c(/C=C2\C(=O)Nc3ccccc32)c(C)c1CCC(=O)O [SU-6668, TSU-68, Orantinib] | 55.6 | 56 | 51.8 | 55.3 | 33.1 | 10.7 | 0.72 | 0
14 | O=C1NC(=O)/C(=C/c2ccc3c(c2)OC(F)(F)O3)S1 | 12.4 | 11 | 24.5 | 22 | 15.8 | 40.4 | 31.3 | 20.8
15 | Cc1ccc(NC(=O)c2cccc(C(C)(C)C#N)c2)cc1Nc1ccc2ncn(C)c(=O)c2c1 | 7.69 | 3.65 | 34.7 | 16.3 | 63.4 | 92.4 | 54.9 | 43.7
16 | COc1cc2nc(N3CCCN(C)CC3)nc(NC3CCN(Cc4ccccc4)CC3)c2cc1OC | 11.3 | 7.44 | 13.3 | 5.75 | 86.7 | 71.2 | 45.1 | 31.4
